The values below come from ChEMBL document CHEMBL4888484, “Replenishing the malaria drug discovery pipeline: Screening and hit evaluation of the MMV Hit Generation Library 1 (HGL1) against asexual blood stage Plasmodium falciparum ,using a nano luciferase reporter read-out” (2022).

The campaign covered roughly 150,000 compounds. About 540 (0.36%) showed an effect of 50% or more. This is one part of the list.

This assay has as its system Plasmodium falciparum. Nature of the assay: Primary screen in NF54 nanoGlo assay, in single point, at 2uM, 72h; a lower Z score goes with more inhibition. In kind it is functional, Erythrocyte. Conditions: timepoint 72 hour.
Consider `Cc1nn(C)c(=O)n1-c1ccc(OCc2ccccc2)cc1`, for which the % Inhibition (usually the change of the read-out against control, counted positive when it falls) is on record as -7% and the Z score was determined as 1.08.

With `O=C(C[C@H]1COCCN1C(=O)c1cccc2cc[nH]c12)c1ccco1`, the “% Inhibition” value is listed as -4% and the Z score worked out at 0.58.

With `O=C(c1ccccc1)N1CCOC[C@H](OCc2ccccc2)C1`, the “% Inhibition” value is 32% and the Z score is given as -3.59.

As for `Cc1cnn(C)c1C(=O)N1CC[C@@](CO)(Cc2ccc(F)cc2)C1`, the “% Inhibition” value is on record as 0% and the Z score was determined as 0.06.

Regarding `c1ccc([C@@H]2NCCOc3ccccc32)cc1`, the “% Inhibition” value was 2% and the Z score is reported as -0.32.

Consider `O=C(CN1CCCC1=O)N1CCN(Cc2ccc(Cl)s2)CC1`, for which the “% Inhibition” value is on record as -5% and the Z score is given as 0.62.

In the case of `COc1ccc(-n2ccnc2CN[C@H]2CCCN(c3ncccn3)C2)cc1`, the “% Inhibition” value is -7% and the Z score was 0.95.

Consider `O=C([C@@H]1CCCO1)N1CCCN(S(=O)(=O)NCc2ccccc2)CC1`, for which the “% Inhibition” value was found to be 2% and the Z score is recorded as -0.28.

Regarding `Cc1nc(CC(=O)NCc2nc(-c3ccco3)n[nH]2)cs1`, the “% Inhibition” value was -15% and the Z score worked out at 2.12.

Turning to `Cc1cc(NCc2csc(N(C)C)n2)nc(Nc2cccc(O)c2)n1`, the “% Inhibition” value is listed as -3% and the Z score is on record as 0.61.

For `O=C(O)C1CC2CCCCC2N1S(=O)(=O)c1cccc(F)c1F` (stereo not drawn), the “% Inhibition” value is on record as 1% and the Z score is on record as -0.31.

In the case of `Nc1nc(C2CC(N)C2)cc(N2CCC(Oc3ccccc3Cl)CC2)n1` (stereo not drawn), the “% Inhibition” value is 50% and the Z score was -7.79.

Consider `CCOc1ccc2c(c1)cc(C(=O)N1CCCC1)n2C`, for which the “% Inhibition” value is on record as -5% and the Z score came to 0.65.

As for `Cc1nc(C(=O)NCc2ccccn2)c(-c2ccccc2)s1`, the “% Inhibition” value was -1% and the Z score is listed as 0.22.

With `c1nc(-c2csc(N3CCOCC3)n2)co1`, the “% Inhibition” value is -4% and the Z score turned out to be 0.6.

As to `CO[C@H]1COC[C@H]1NC(=O)N1CCCC1c1cccs1` (stereo partly drawn), the “% Inhibition” value is reported as -4% and the Z score amounted to 0.7.

As for `Cc1nc(N2CCC[C@H](C(=O)NCc3cccc(F)c3)C2)c2c(C)c(C)oc2n1`, the “% Inhibition” value is -7% and the Z score was 0.72.

For `CCn1ncnc1[C@H]1CC(=O)Nc2[nH]nc(-c3cccs3)c21`, the “% Inhibition” value stood at 2% and the Z score is listed as -0.36.

For `Cc1cn2nc(C(=O)NCc3cccs3)cc2c(N2CCCC2)n1`, the “% Inhibition” value was determined as 5% and the Z score is given as -0.76.

Turning to `COc1cccc(-c2n[nH]c3c2CN(C(=O)c2c(C)noc2C)CC3)c1`, the “% Inhibition” value was -9% and the Z score is listed as 1.17.

Regarding `O=C(O)CN(Cc1ccc(CO)cc1)Cc1ccc(Cl)s1`, the “% Inhibition” value is listed as 6% and the Z score is listed as -0.75.

Regarding `c1cc([C@H]2CCCN(c3ncnc4c3CCC4)C2)[nH]n1`, the “% Inhibition” value is reported as 7% and the Z score was -0.92.

For the compound `CCC(C)C(C)(O)CNC(=O)C(=O)Nc1ccc(F)cc1C` (stereo not drawn), the “% Inhibition” value is recorded as -10% and the Z score is listed as 1.21.

`C[C@]1(c2ccc3c(c2)OCCCO3)NC(=O)N(CC(=O)N2CCN(S(=O)(=O)c3ccc(F)c(F)c3)CC2)C1=O`: the “% Inhibition” value is on record as -7% and the Z score came out at 1.39.

For `COc1cc(OC)cc(C(=O)Nc2ccc3c(c2)C(=O)N2CCC[C@H]2C(O)=N3)c1`, the “% Inhibition” value was 24% and the Z score is recorded as -2.11.

Take `COCCN1CC2(CCC1=O)CCN(c1nc(C)cc(C)n1)CC2`: the “% Inhibition” value is on record as -7% and the Z score stood at 0.6.

Consider `Cc1ccc(-c2nn(-c3ccccc3)cc2C(=O)N2CCC(C)CC2)o1`, for which the “% Inhibition” value was -5% and the Z score stood at 0.6.

As for `CCc1sc(Nc2ccc(C)cc2)nc1-c1c(C)n(C)n(-c2ccccc2)c1=O`, the “% Inhibition” value is -30% and the Z score turned out to be 3.57.

For `Cc1oc(-c2cnn(C)c2)nc1C(=O)Nc1cc(F)ccc1OC(C)C`, the “% Inhibition” value is -10% and the Z score is listed as 1.61.

For the compound `Cn1c(C2CC2)nnc1N1CCC[C@]2(CC=CCC2)C1`, the “% Inhibition” value is -6% and the Z score is listed as 0.99.

Regarding `CCOC(=O)CCC(=O)Nc1ccc(C(N)=O)c(Cl)c1`, the “% Inhibition” value came out at 3% and the Z score is on record as -0.4.

Consider `CC(C)NC(=O)C1CCCC(NC(=O)CC2(O)CCCCC2)C1` (stereo not drawn), for which the “% Inhibition” value is given as -10% and the Z score worked out at 1.42.

In the case of `COC(=O)N1CCCC(C(C)NC(=O)c2scc(C)c2Cl)C1` (stereo not drawn), the “% Inhibition” value is listed as -14% and the Z score turned out to be 1.46.

In the case of `O=C([C@@H]1COCCO1)N1CCC=C(F)C1`, the “% Inhibition” value is on record as -5% and the Z score is listed as 0.69.

With `Cc1cc(CC(=O)N2CC[C@@H](O)C2)n[nH]1`, the “% Inhibition” value was determined as 4% and the Z score was -0.42.

For the compound `C[C@H]1C(=O)NCCCN1C(=O)c1ccc(Br)cn1`, the “% Inhibition” value is -7% and the Z score is listed as 0.69.

Consider `O=C(c1ccc2[nH]cnc2c1)N1CCc2[nH]nc(-c3cc(F)ccc3F)c2C1`, for which the “% Inhibition” value came out at 7% and the Z score is listed as -0.99.

On to `c1cc(-c2nc3ccccc3o2)c2ccncc2c1`, for which the “% Inhibition” value was -2% and the Z score came out at 0.32.

Regarding `CC(C)(C)OC(=O)N[C@H](c1nc(Cc2cccnc2)no1)C1CCC1`, the “% Inhibition” value is on record as -3% and the Z score is 0.53.

As for `Cc1noc(C)c1S(=O)(=O)N1CC(N2CC(F)(F)C[C@H]2COCc2ccccc2)C1`, the “% Inhibition” value was -18% and the Z score was 2.14.

For `Cc1cc(C)cc(NC(=O)C2CCN(c3cc(C)nc4c(-c5ccc(Cl)cc5)c(C)nn34)CC2)c1`, the “% Inhibition” value was -12% and the Z score is 1.53.

As for `C#CCOc1ccc([C@H]2CC(=O)Nc3ccsc32)cc1OC`, the “% Inhibition” value came out at 24% and the Z score is -3.41.

With `O=C1CN(c2ccc(CNC(=O)N3CCCCCCC3)cc2)CCN1`, the “% Inhibition” value is -16% and the Z score is 1.64.

Turning to `CC(C)(C)CC(=O)NC[C@H]1OC[C@@H](NC2COC2)[C@@H]1O`, the “% Inhibition” value is -14% and the Z score came to 2.2.

As to `Cn1nc(C2CC2)cc1CNC(=O)[C@@H]1COCC[C@@H]1c1ccccc1`, the “% Inhibition” value worked out at 8% and the Z score was -1.08.

For `Cc1cc(NC(=O)NCC2C(C)OC(C)(C)N2C(=O)OC(C)(C)C)no1` (stereo not drawn), the “% Inhibition” value worked out at 1% and the Z score was -0.1.

In the case of `Cc1c(Cl)cccc1NC(=O)CCC(=O)N1CCCN(c2nc3cccnc3s2)CC1`, the “% Inhibition” value is -3% and the Z score is 0.26.

Turning to `COC(=O)c1ccc(C(=O)N2CCCC2C2CC(C)CCC2O)cc1` (stereo not drawn), the “% Inhibition” value is 4% and the Z score is -0.53.

With `COc1cc(C(=O)N2CCCN(C3CCOCC3)CC2)ccc1F`, the “% Inhibition” value was found to be 3% and the Z score is on record as -0.25.

For the compound `CN(Cc1nc2ccccc2s1)c1ccn(C)n1`, the “% Inhibition” value is on record as -6% and the Z score stood at 1.29.

In the case of `C[C@H](NCC(=O)NCc1ccc(F)cc1)C1CCOCC1`, the “% Inhibition” value is -6% and the Z score turned out to be 0.79.

Turning to `Cc1ccc(C(=O)NCCC2(O)CCCC2)cn1`, the “% Inhibition” value was -27% and the Z score came to 2.38.

For `Cc1ccc(-c2noc(CN3N=NC4C(=O)N(c5ccc6c(c5)CCC6)C(=O)C43)n2)cc1` (stereo not drawn), the “% Inhibition” value turned out to be 0% and the Z score was 0.01.

With `CS(=O)(=O)N1CC[C@H](CNC(=O)NC(C2CCC2)C2CCC2)C1`, the “% Inhibition” value came to 1% and the Z score is on record as -0.21.
